# Reference: PubChem BioAssay AID504332 (National Center for Advancing Translational Sciences (NCATS), 2011)
# Screen size: about 350,000 compounds; about 31,000 (8.9%) were called active. Inconclusive results, whose numbers are uncertain, are shown with a selection of clear calls. Calls come from the whole dose curve; as a rule, active = well fitted inhibition curve with a large enough effect; inconclusive = small, poorly fitted or top-dose-only effect; inactive = no such curve, though single readings can be large or run the other way. A potency beside an inconclusive call is a rough fit, not a confirmed value.
# Molecular target: Histone-lysine N-methyltransferase EHMT2 (Homo sapiens) (UniProt Q96KQ7)
# Sequence of UniProt Q96KQ7 (Q96KQ7 whole entry, looked up): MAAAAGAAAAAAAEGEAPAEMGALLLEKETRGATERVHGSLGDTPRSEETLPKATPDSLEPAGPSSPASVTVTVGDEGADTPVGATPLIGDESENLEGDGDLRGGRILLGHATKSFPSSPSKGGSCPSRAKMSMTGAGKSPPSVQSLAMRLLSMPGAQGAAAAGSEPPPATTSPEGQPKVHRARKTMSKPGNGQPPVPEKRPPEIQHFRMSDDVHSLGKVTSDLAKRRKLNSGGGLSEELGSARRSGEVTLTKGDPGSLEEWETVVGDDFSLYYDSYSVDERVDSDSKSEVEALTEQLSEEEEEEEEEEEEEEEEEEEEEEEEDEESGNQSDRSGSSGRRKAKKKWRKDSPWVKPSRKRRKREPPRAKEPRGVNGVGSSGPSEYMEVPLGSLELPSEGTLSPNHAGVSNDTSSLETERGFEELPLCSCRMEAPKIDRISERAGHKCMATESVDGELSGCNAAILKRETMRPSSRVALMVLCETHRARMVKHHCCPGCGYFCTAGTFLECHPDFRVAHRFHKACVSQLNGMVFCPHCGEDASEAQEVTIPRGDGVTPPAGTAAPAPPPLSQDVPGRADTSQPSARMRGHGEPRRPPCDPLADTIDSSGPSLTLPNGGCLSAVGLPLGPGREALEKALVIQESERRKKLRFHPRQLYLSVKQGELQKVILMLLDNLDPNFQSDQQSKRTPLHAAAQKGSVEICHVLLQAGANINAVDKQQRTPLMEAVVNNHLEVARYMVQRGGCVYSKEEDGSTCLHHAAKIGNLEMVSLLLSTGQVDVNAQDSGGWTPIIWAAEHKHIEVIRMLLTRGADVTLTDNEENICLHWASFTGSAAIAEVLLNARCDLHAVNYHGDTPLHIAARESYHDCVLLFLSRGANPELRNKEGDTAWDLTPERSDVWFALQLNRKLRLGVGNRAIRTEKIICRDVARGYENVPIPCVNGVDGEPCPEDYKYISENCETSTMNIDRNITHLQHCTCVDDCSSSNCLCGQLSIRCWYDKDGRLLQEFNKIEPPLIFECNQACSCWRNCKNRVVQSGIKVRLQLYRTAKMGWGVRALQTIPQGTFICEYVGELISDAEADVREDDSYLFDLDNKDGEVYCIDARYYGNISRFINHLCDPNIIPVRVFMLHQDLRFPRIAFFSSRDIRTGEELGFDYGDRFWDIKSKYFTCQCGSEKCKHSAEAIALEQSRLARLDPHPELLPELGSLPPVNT
# Test: qHTS Assay for Inhibitors of Histone Lysine Methyltransferase G9a; note: nearly all actives have a fitted effect of over 75% in size
# Conditions: G9a H3K9 monomethylation, AlphaScreen, 2 h; activity, negative = inhibition: at 59 µM (top of the series) unless noted
# How it was run: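 Using a bead-based AlphaScreen, monomethylated H3K9 product from 2 h room-temperature reactions (G9a 20 nM, peptide 500 nM, SAM 20 uM) was detected with 0.5 ug/mL rabbit anti-H3K9me1 antibody.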
# % is set by controls: 0 for no effect and ±100 for the full control effect; potency is the fitted concentration of half-maximal effect; tags give direction and shape of the fitted curve.
SMILES,Potency,"activity, negative = inhibition"
O=C(NCC1CCN(C(=O)c2c(F)c(F)c(F)c(F)c2F)CC1)c1c(F)c(F)c(F)c(F)c1F,active: 79.4 µM,
COc1ccc(CCN2CC34C=CC(O3)C(C(=O)NCc3ccccc3Cl)C4C2=O)cc1OC (stereo unspecified),"inconclusive: 25.1 µM [inhibitor, single point]",
CN(CC(=O)Nc1cccc(F)c1)C(=O)c1cccc(-n2cccc2)c1,"inconclusive: 7.94 µM [inhibitor, partial curve]",
c1cncc(N=c2scc(-c3cccc4ccccc34)n2CCCn2ccnc2)c1,"inconclusive: 31.6 µM [inhibitor, single point]",
CN1/C(=C/C=C(C#N)C#N)C=Cc2ccccc21,,inactive: -10.9% [at 102 µM]
CC(C)(C)c1ccc(C(=O)NCC(=O)OCc2cc(=O)n3nc(C4CC4)sc3n2)cc1,,inactive: 30.1%
O=c1c2ccccc2nc(N/N=C/c2c(O)ccc3ccccc23)n1O,,inconclusive: -110% [inhibitor]
O=C(Oc1ccc2ccc(=O)oc2c1)c1ccco1,,inactive: -20.6% [at 102 µM]
CCN1CCN(c2csc3ccc(Br)cc3c2=O)CC1,"inconclusive: 28.2 µM [inhibitor, partial curve, poor fit]",
Cc1ccc(C)c(-c2nn(-c3cc(N4CCN(CCO)CC4)ccc3[N+](=O)[O-])c(=O)c3ccccc23)c1,active: 39.8 µM,
CC1CC2(CC(C)(C(=O)CSc3nc4ccccc4s3)OC2=O)C(=O)O1 (stereo unspecified),"inconclusive: 31.6 µM [inhibitor, single point]",
CCn1c(=O)c2cc(C(=O)NCc3cc(OC)ccc3OC)sc2c2ccccc21,,inactive: -2.88%
COC(=O)c1ccc2nc(NC(=O)COC(=O)CSc3nc(C)cc(C)n3)sc2c1,active: 12.6 µM,
O=c1cc(-c2ccco2)oc2c1ccc1ccccc12,"inconclusive: 11.2 µM [inhibitor, partial curve]",
COc1ccc(-n2c(=S)[nH]c3sc4c(c3c2=O)CCc2ccccc2-4)cc1,"inconclusive: 5.62 µM [inhibitor, full curve, poor fit]",
O=C(CSc1ccc(Br)cc1)NCC1CCCO1 (stereo unspecified),active: 39.8 µM,
O=C1CSC(c2ccccc2[N+](=O)[O-])N1CCc1ccccc1 (stereo unspecified),"inconclusive: 89.1 µM [inhibitor, single point]",
O=C(N1CCN(Cc2ccc3c(c2)OCO3)CC1)C12CC3CC(CC(C3)C1)C2,"inconclusive: 89.1 µM [inhibitor, single point]",
Cc1cccc(-c2nc(CC(=O)Nc3cccc(S(=O)(=O)NC4=NCCC4)c3)cs2)c1,"inconclusive: 5.01 µM [inhibitor, partial curve, poor fit]",
CC(=O)[C@@]1(O)C(C)CC2C3C=C(C)C4=Cc5c(cnn5-c5ccccc5)C[C@]4(C)C3C(O)C[C@@]21C (stereo partly specified),"inconclusive: 1.41 µM [inhibitor, partial curve, poor fit]",
Cc1ccc(Nc2nc(N3CCOCC3)nc(N3CCOCC3)n2)cc1C,active: 50.1 µM,
CCN1C(=O)C(CC(=O)Nc2ccccc2Cl)N(NC(=O)c2cccc(F)c2)C1=S (stereo unspecified),"inconclusive: 79.4 µM [inhibitor, partial curve, poor fit]",
C=CCN(CC=C)C(=O)C1CCN(Cc2ccc(OCc3ccccc3)cc2)CC1,active: 7.94 µM,
COc1ccc(N(CC(=O)N/N=C/c2ccco2)S(=O)(=O)c2ccccc2)cc1Cl,"inconclusive: 22.4 µM [inhibitor, partial curve, poor fit]",

SMILES,Potency,"activity, negative = inhibition"
O=C(Nc1ccc(F)cc1)NC1(C(=O)NCc2ccc3c(c2)OCO3)CCCCC1,,inactive: -10.9%
CC1CN(C(=O)c2ccncc2)CC(C)O1 (stereo unspecified),,inactive: -6.6%
COc1ccc(C2Nc3ccccc3NC3=C2C(=O)CC(C)(C)C3)cc1 (stereo unspecified),,inactive: -18.1% [at 102 µM]
COc1ccc(/C=C2/SC(=O)NC2=O)cc1,active: 79.4 µM,
Cc1nc2cnc(N3CCN(C)CC3)nc2n(Cc2ccc(F)cc2)c1=O,,inactive: 0.925% [at 0.501 µM]
CCn1cc(C(=O)N[C@@H](CCSC)C(=O)NCCCO)c(=O)c2cc3c(cc21)OCO3,,inactive: -7.4% [at 0.501 µM]
CC(NC(=O)c1ccc([N+](=O)[O-])cc1Cl)C1CC2CCC1C2 (stereo unspecified),"inconclusive: 89.1 µM [inhibitor, partial curve, poor fit]",
CCCCn1c(=O)n(CC2CCC(C(=O)NCCCOC)CC2)c(=O)c2sccc21 (stereo unspecified),,inactive: 6.58%
CC(C)Cn1cc(NC(=O)N2CCN(c3ccc(F)cc3)CC2)c2ccccc2c1=O,,inactive: -10.1%
CC(=O)c1ccc(NC(=O)CSC2=Nc3ccccc3N=C(c3ccc(F)cc3)C2)cc1,,inactive: 4.71%
CCOc1cc(/C=N\Nc2nc(Nc3ccccc3)nc(N3CCOCC3)n2)ccc1OC(=O)c1ccco1,"inconclusive: 28.2 µM [inhibitor, single point]",
O=C(NC1CCCCC1)C(c1cccs1)N(C(=O)c1ccco1)c1ccc2c(c1)OCCO2 (stereo unspecified),"inconclusive: 39.8 µM [inhibitor, single point]",
Oc1ccc(/C=N/N=C(c2ccccc2)c2ccccc2)c(O)c1O,active: 1.41 µM,
Cc1ccc(-n2nc3c(=O)n(C(C)C(=O)NCc4ccc(OC(C)C)cc4)nc(C)c3c2C)cc1 (stereo unspecified),,inactive: -8.93%
O=C(CSc1ccc2c(c1)OCCO2)Nc1ccc(Br)cc1,,inactive: 13.9% [at 102 µM]
O=C(CSc1n[nH]c(-c2cccnc2)n1)Nc1ccnc2ccccc12,"inconclusive: 79.4 µM [inhibitor, partial curve, poor fit]",
Cc1ccc2nc(COc3cccc(NC(=O)Nc4ccc(C)c(Cl)c4)c3)cc(=O)n2c1,,inactive: 6.7%
CC1Cc2nc(SCC(=O)N3CCCC3)n(C)c(=O)c2S1 (stereo unspecified),"inconclusive: 50.1 µM [inhibitor, partial curve, poor fit]",
NS(=O)(=O)c1ccc(NC(NC(=O)c2cccnc2)C(Cl)(Cl)Cl)cc1 (stereo unspecified),"inconclusive: 0.631 µM [inhibitor, partial curve, poor fit]",
O=C(Nc1nc2c(s1)CCCC2)c1cc2n(n1)C(C(F)(F)F)CC(C1CC1)N2 (stereo unspecified),"inconclusive: 31.6 µM [inhibitor, single point]",
Cc1cc(-n2c(C)cc(C(=O)CSc3nncn3C(C)C)c2C)no1,active: 56.2 µM,
CC(/C=C\C=C\c1ccccc1)=N\NC(=O)c1cncc(Br)c1,"inconclusive: 44.7 µM [inhibitor, partial curve]",
O=C(CSc1nnc(CCCN2C(=O)c3cccc4cccc(c34)C2=O)n1-c1ccccc1)NCCCN1CCOCC1,"inconclusive: 89.1 µM [inhibitor, single point]",
CCC(=O)N1CCc2cc(S(=O)(=O)CCC(=O)N3CCCC(C)C3)ccc21 (stereo unspecified),,inactive: -3.59% [at 102 µM]

SMILES,Potency,"activity, negative = inhibition"
CCN1CCN(c2nc(N)c([N+](=O)[O-])c(Nc3ccc(C)cc3)n2)CC1,"inconclusive: 39.8 µM [inhibitor, single point]",
CCCCN(C)CC(O)Cn1cc(/C=C/C(=O)c2ccc(Br)cc2)c2ccccc21 (stereo unspecified),,inactive: -2.2%
CCCS(=O)(=O)N1CC(=O)N(c2cccc(Cl)c2)C(C)(C(=O)NC2CCCCC2)C1 (stereo unspecified),,inactive: 6.59%
CC1CCCC(C)N1C(=O)COC(=O)Cc1c[nH]c2ccccc12 (stereo unspecified),,inactive: -41.9% [at 102 µM]
CN(CC(=O)Nc1ccc(F)cc1)C(=O)COC(=O)/C=C/c1cccs1,"inconclusive: 79.4 µM [inhibitor, partial curve, poor fit]",
CCOc1ccccc1CNC(=O)c1cc2c(=O)n(Cc3cccnc3)ccc2nc1C,,inactive: -1.38%
Nc1nnnn1/N=C\c1ccc(Cl)c([N+](=O)[O-])c1,,inactive: 40.3% [at 0.0925 µM]
CCCCCC(=O)Nc1ccc(N2CCN(C(=O)c3ccccc3)CC2)cc1,"inconclusive: 11.2 µM [inhibitor, partial curve]",
O=C(NCc1ccccn1)c1ccc2c(=O)n(CCc3ccccc3)c(=O)[nH]c2c1,"inconclusive: 22.4 µM [inhibitor, single point]",
CCOC(=O)N1CCN(C(=O)CCCn2c(=S)[nH]c3ccsc3c2=O)CC1,active: 31.6 µM,
OC(COCC1COc2ccccc2O1)CN1CCN(c2ccc(F)cc2)CC1 (stereo unspecified),"inconclusive: 89.1 µM [inhibitor, single point]",
Cc1ccc(C2=NS(=O)(=O)N(C)C(C(=O)NCc3ccc4c(c3)OCO4)=C2)cc1,"inconclusive: 56.2 µM [inhibitor, partial curve, poor fit]",
O=C(COC(=O)/C=C/C(=O)N1CCN(c2ccccc2)CC1)NC(c1ccccc1)c1ccccc1,"inconclusive: 28.2 µM [inhibitor, partial curve, poor fit]",
COC(=O)c1ccccc1Nc1cc(C)nc2nc(C)nn12,,inactive: -16.7% [at 102 µM]
CCCCC(=O)Nc1ccc2nc(SCC(=O)N3CCc4ccccc43)sc2c1,,inactive: 4.69%
COc1cc(/C=N/NC(=O)C2(O)c3ccccc3-c3ccccc32)ccc1O,"inconclusive: 22.4 µM [inhibitor, single point]",
CCCCc1ccc(Nc2ncccc2C#N)cc1,"inconclusive: 5.62 µM [inhibitor, single point]",
Cc1ccc(NC(=O)CN2C(=O)CNC2=O)cc1,,inactive: -3.7% [at 102 µM]
Cn1nccc1C(=O)OCC(=O)Nc1nc(-c2ccccc2)cs1,"inconclusive: 79.4 µM [inhibitor, single point]",
CN(C)CCN(Cc1ccccc1)c1nccc(N(C)C)c1C#N,active: 3.98 µM,
CCOC(=O)N1CCc2c(sc3c2c(=O)n(Cc2ccccc2)c(=O)n3CC(=O)Nc2cccc(CC)c2)C1,,inactive: 0.769%
CC(=O)c1ccc(NC(=S)Nc2cccc3cnccc23)cc1,"inconclusive: 7.94 µM [inhibitor, single point]",
CC(C)N(CC(O)COc1ccc(CC(N)=O)cc1)CC(O)COc1ccc(CC(N)=O)cc1 (stereo unspecified),"inconclusive: 56.2 µM [inhibitor, partial curve, poor fit]",
